From PubChem BioAssay AID463173 (ICCB-Longwood Screening Facility, Harvard Medical School, 2010)
Screen size: about 52,000 compounds; about 4,300 (8.3%) were called active. No stated cut-off is given here; in the data, active means survival mostly below about 52% (no sharp cut-off); inactive means mostly above about 56%. The list shows a part of the results.

What follows are compounds tested on DeltatarO mutant (assay: S. aureus survival, RN4220 and DeltatarO strains – OD600, teichoic acid synthesis inhibitors, primary screen (AID 463173)). Conditions: S. aureus RN4220 wild type/DeltatarO growth, OD600, 18 h, hits give low values, screened at 18.75 µg/mL (by protocol).

Structure (SMILES) | survival
O=C(NCCCO)c1cc2sc3ccccc3c2s1 | inactive: 83%
Cc1ccccc1-c1nc(CS(=O)CC(=O)N2CCN(c3cc(Cl)ccc3C)CC2)c(C)o1 (stereo unspecified) | active: 30%
CS(=O)(=O)N1CCN(c2ncnc3c(-c4ccc(Cl)cc4)nsc23)CC1 | inactive: 99%
CCC(=O)N1c2ccccc2CC1C(=O)NCc1cccc(C)c1 (stereo unspecified) | inactive: 73%
O=C1/C(=C/c2ccccc2)Nc2ccccc21 | inactive: 112%
CCCCC(=O)Nc1cccc(-c2nc3ncccc3o2)c1C | inactive: 80%
CCN(CC)CCCNC(=O)Cn1nc(C)n2c(cc3sccc32)c1=O | inactive: 95%
Cc1ccc(OCC(=O)Nc2ccc(OCc3cc(=O)n4cccc(C)c4n3)cc2)cc1C | active: -5%
COc1ccc(CCNC(=O)Cc2c(C)c3c(cc(C)c4c(C)coc43)oc2=O)cc1OC | inactive: 72%
COc1ccc(CC(=O)NC2CC(=O)N(c3cccc(F)c3)C2)cc1 (stereo unspecified) | inactive: 94%
Cc1nn(C(C)C(=O)NC2CCCCC2)c(=O)c2c1sc1ccccc12 (stereo unspecified) | inactive: 58%
COc1ccc(CCNC(=O)c2ccc3c(c2)CCN3S(C)(=O)=O)cc1 | inactive: 82%
CCN(C(=O)C(=O)Nc1ccc2nc3n(c(=O)c2c1)CCCCC3)c1ccc(F)cc1 | inactive: 94%
Cc1ccc2sc(N(Cc3cccnc3)C(=O)CCOc3ccccc3)nc2c1C | inactive: 79%
COc1cc(C(=O)CC2(O)C(=O)N(Cc3ccccc3Cl)c3ccccc32)cc(OC)c1OC (stereo unspecified) | inactive: 71%
Cc1c(C(=O)N(Cc2ccc(N(C)C)cc2)C2CCS(=O)(=O)C2)oc2ccccc12 (stereo unspecified) | active: 42%
O=C(c1ccc2c(c1)N(Cc1ccccc1)C(=O)c1ccccc1S2(=O)=O)N1CCN(c2ccccc2)CC1 | inactive: 119%
COc1ccc(OC)c(C2NC(=O)NC(C)=C2C(=O)Nc2cc(C)cc(C)c2)c1 (stereo unspecified) | inactive: 47%
CCOC(=O)C1(C)C=C(Nc2ccc(Br)cc2)C(=O)N1c1ccccc1 (stereo unspecified) | inactive: 65%
CC(C)c1cc(C(=O)O)on1 | inactive: 102%
CS(=O)(=O)NCc1ccc2c(c1)OCO2 | inactive: 92%
Cc1ccc(NC(=O)CSc2nc(C)c(Cc3ccccc3)c(=O)[nH]2)cc1C | inactive: 84%
CC(C)Oc1ccc(C(=O)Nc2ccc3c(c2)CCCN3C(=O)c2cccs2)cc1 | inactive: 58%

Structure (SMILES) | survival
CCC(Sc1nc2ccccc2c2nc(CCn3cncc3C)nn12)C(=O)Nc1cccc(OC)c1 (stereo unspecified) | inactive: 89%
CCC1CCCCN1CCCNC(=O)CN1C(=O)c2cccnc2Oc2ccc(Cl)cc21 (stereo unspecified) | inactive: 91%
O=C(Cn1cc(SCc2ccc(C(F)(F)F)cc2)c2ccccc21)N1CCCCCC1 | inactive: 79%
COc1ccc(Cn2c(CNC(=O)c3ccc(N(C)C)cc3)nc3cccnc32)cc1 | inactive: 81%
O=C(Nc1c(C(=O)N2CCN(c3ccc(F)cc3)CC2)oc2ccccc12)c1c(F)cccc1F | inactive: 95%
Cc1nnc(NC(=O)CSc2nc3c([nH]c4ccccc43)c(=O)n2-c2ccccc2)s1 | inactive: 88%
CCc1ccc2c(c1)c1nnc(SCC(=O)c3ccc(OC)cc3)nc1n2C | inactive: 88%
COc1ccc(C2CC(=O)c3cc(-c4nc(-c5cccc([N+](=O)[O-])c5)cs4)c(=O)n(-c4ccc(C)c(C)c4)c3C2)cc1 (stereo unspecified) | inactive: 156%
CCCN1C(=O)c2[nH]nc(-c3ccccc3O)c2C1c1ccc(OCc2ccccc2)c(OCC)c1 (stereo unspecified) | active: 40%
Cc1ccc(Cl)cc1NC(=O)CN1C(=O)c2cccc3cccc1c23 | inactive: 63%
COc1ccc(C)c2sc(N(Cc3cccnc3)C(C)=O)nc12 | inactive: 80%
CCc1ccc(NC(=O)C2CCC(CNS(=O)(=O)c3ccc4c(c3)CC(C)N4C(C)=O)CC2)cc1 (stereo unspecified) | inactive: 87%
COc1ccc(-c2nc3ccccc3s2)cc1NC(=O)COc1ccccc1C | inactive: 142%
COc1ccccc1OCCn1c(NC(=O)c2ccc(Cl)cc2)nc2ccccc21 | active: 45%
C=CCN(CC=C)C(=O)C1CCN(Cc2cc(Br)c(O)c(OC)c2)CC1 | inactive: 100%
C=CCNc1nc(-c2ccccc2)cs1 | inactive: 97%
Fc1ccc(Nc2nc3ccccc3c3nncn23)c(Cl)c1 | inactive: 99%
Cc1cc(C)c2nc(N3CCCC(C(=O)NCc4cccc(Br)c4)C3)sc2c1 (stereo unspecified) | inactive: 66%
Cc1ccc2oc(=O)c3cc(C(=O)Nc4ccc(F)cc4F)sc3c2c1 | inactive: 79%
COc1ccc(CCNC(=O)c2ccc(Cn3c(=O)c4ccccc4n(Cc4cc(C)ccc4C)c3=O)cc2)cc1OC | inactive: 75%
Cc1ccc(NC(=O)c2oc3ccc(S(=O)(=O)N4CCCCCC4)cc3c2C)cc1Cl | inactive: 86%
CCOC(=O)c1ccc(N2CCN(c3ccccc3F)CC2)c(NC(=O)Nc2ccc(Cl)c(Cl)c2)c1 | inactive: 65%
CC(C)CSc1nnc(-c2ccccc2)c(-c2ccccc2)n1 | active: -8%

Structure (SMILES) | survival
O=C(Nc1cccc(Cl)c1)c1cc(-c2ccc3c(c2)OCCO3)on1 | inactive: 103%
Cc1cccc(N(C)C(CNS(=O)(=O)c2ccccc2)c2ccccc2)c1 (stereo unspecified) | inactive: 100%
Cc1cccc(C(=O)Nc2cccc(OCc3cc(=O)n4cccc(C)c4n3)c2)c1 | inactive: 92%
Cc1ccc(C)c(Nc2nc(-c3ccccc3)c3cc(Br)ccc3n2)c1 | active: 43%
COC(=O)c1cccc(Cn2nnc3sc4c(c3c2=O)CCC(C(C)(C)C)C4)c1 (stereo unspecified) | inactive: 68%
O=C(COc1ccccc1)NCCc1csc(-c2cccc(F)c2)n1 | inactive: 78%
Cc1ccc[n+](Cc2cnc(C)nc2N)c1 | inactive: 83%
COc1ccc(CCNC(=O)CCCCn2c(=O)c3ccccc3n(CC(=O)Nc3ccc(C)cc3C)c2=O)cc1OC | inactive: 96%
O=C(CSc1ncn[nH]1)n1c2ccccc2c2ccccc21 | inactive: 70%
O=C(c1cccs1)N1CCCn2c1nc1ccccc12 | inactive: 90%
N#Cc1cccc(NC(=O)Cn2nc(Cc3ccncc3)c3ccccc3c2=O)c1 | inactive: 123%
CCN1C(=O)C(Cc2nc3ccccc3c(=O)n2-c2ccc(OC)cc2)c2cc(C)ccc21 (stereo unspecified) | inactive: 81%
Cc1cc(C)n(C2CC(=O)N(N(C)C)C2=O)n1 (stereo unspecified) | inactive: 92%
Cn1nnnc1SCCNCc1ccc(OCc2ccccc2Cl)cc1 | inactive: 102%
CC(NC(=O)c1ccc(NC(=O)c2nsc3ccccc23)cc1)c1ccccc1 (stereo unspecified) | inactive: 84%
Cc1ccc(N(C)S(=O)(=O)c2ccc3[nH]c4c(c3c2)CCCC4)cc1 | inactive: 67%
COc1ccccc1N1CCN(CC(=O)N2CCCC2)CC1 | inactive: 83%
O=C(COc1ccccc1)NCc1ccc2c(c1)CCN2C(=O)c1ccccc1 | inactive: 76%
N#CN=C(N)CSc1nc(-c2ccccc2)cc(-c2ccccc2)c1C#N | inactive: 56%
Cc1cc(Sc2ccc(Cl)cc2)nc2ccccc12 | inactive: 45%
O=C(CSc1ccccc1)NCc1ccc2c(c1)CCN2C(=O)c1ccc(Cl)cc1 | inactive: 86%
CC(C)(C)OC(=O)N1CCC(c2c(C(=O)NC3CCCCC3)cnn2-c2cccc(F)c2)CC1 | inactive: 128%
CCOC(=O)c1ccc(NC(=O)CC2C(=O)N(c3ccc(C)cc3)C(=O)N2C2CCCCC2)cc1 (stereo unspecified) | inactive: 88%

Structure (SMILES) | survival
Cc1cc(C(F)(F)F)nn1-c1nc(-c2ccccc2)cc(C(F)(F)F)n1 | active: 17%
Cc1cc(=O)n(CC(=O)Nc2ccc([N+](=O)[O-])cc2)c(-n2nc(C)cc2C)n1 | inactive: 72%
COc1ccc(CCN2C(=O)c3[nH]nc(-c4ccccc4O)c3C2c2cccc(OC)c2)cc1 (stereo unspecified) | inactive: 66%
Cc1ccccc1NC(=O)Cn1c(=O)n(CCc2ccccc2)c(=O)c2sc3ccccc3c21 | inactive: 76%
Cc1[nH]c2ccccc2c1C(c1ccccc1)c1cccs1 (stereo unspecified) | active: 7%
Clc1ccc(OCc2nc3ccccc3[nH]2)cc1 | inactive: 104%
Cc1cccc(NC(=O)c2sc3nc4c(cc3c2N)CCCCCC4)c1C | inactive: 134%
COC(=O)c1c(NC(=O)Cc2coc3ccc(C)cc23)sc2c1CCC2 | inactive: 59%
COc1ccc(-n2nc(C(=O)Nc3ccc(Cl)cn3)c3c4ccccc4n(C)c3c2=O)cc1Cl | inactive: 88%
Cc1ccc(NC(=O)CSc2c3c(nc4ccccc24)CCCC3)cc1F | active: 30%
Cc1ccc(CCNC(=O)c2cc(Nc3ccc(C)c(C)c3)nc3ccccc23)cc1 | inactive: 74%
CC(C)C1C(=O)Nc2ccc(S(=O)(=O)NCc3ccc(Cl)cc3)cc21 (stereo unspecified) | active: 52%
Cc1cc(F)ccc1-n1nnc(C(N)=O)c1C | inactive: 76%
Cc1ccccc1Nc1c(-c2cccc(N(C)C)c2)nc2ccc(Br)cn12 | inactive: 98%
CC(=O)c1cccc(NC(=O)c2c(-c3ccccc3)c(-c3ccccc3)nn(C)c2=O)c1 | inactive: 57%
CN(Cc1ccccc1)c1ccc(-c2nc(-c3ccco3)no2)cc1[N+](=O)[O-] | inactive: 52%
O=C(c1ccccc1Cl)N(Cc1ccco1)Cc1ccco1 | inactive: 60%
COc1ccc(-c2noc(-c3ccc(N4CCN(c5ccc(OC)cc5)CC4)c([N+](=O)[O-])c3)n2)cc1 | inactive: 47%
O=C(Cc1nc2ccccc2[nH]1)N1CCCC1 | inactive: 84%
CCOc1ccc(-n2nc(CO)c(C(=O)NCc3cccnc3)n2)cc1 | active: 44%
Cc1cccn2c(=O)c(C(=O)NCc3ccccc3Cl)c(O)nc12 | inactive: 65%
COc1cccc(N2CCN(C(=O)c3cc4c(=O)n(Cc5ccccc5)ccc4nc3C)CC2)c1 | inactive: 104%
